The record followed here is the supplement of paper PMC8007513.

The subject of this assay is Trichoderma virens ATCC 9645. Briefly: growth yield (OD600) relative to untreated control; higher = less growth inhibition. As to conditions: compound concentration: 100 uM. The gist of the method: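 Spores of Trichoderma virens ATCC 9645, taken from potato dextrose agar plates grown for 7 days, were suspended at 15,000 spores ml^−1 in potato dextrose broth. In 96-well plates, 100 μl aliquots held library compounds at 100 μM final, either alone or together with a biocide at 200 ng ml^−1, and were grown at 30 °C. A BioTek EL800 read OD600 at 40 h and 72 h. Growth values are given relative to the control lacking both agents and are means of duplicate screens.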

Where a name gives a salt, the structure may show the parent alone. ± gives the standard error. The campaign covered roughly 1,300 compounds. About 75 (6%) showed an effect of 50% or more. The list shows a part of the results.

Compound `CN1CCN(c2c(F)cc3c(=O)c(C(=O)O)cn4c3c2SCC4)CC1` [Rufloxacin] showed a growth yield (40 h) of 92.8 ± 1.3% and a growth yield (72 h) of 83 ± 7.5%.

`COC(=O)C1=C(C)NC(C)=C(C(=O)OCC(C)C)C1c1ccccc1[N+](=O)[O-]` (stereo not drawn) [Nisoldipine]: the growth yield reads like this: (40 h) 25.6 ± 0.48%; (72 h) 23.9 ± 2.3%.

With `O=C1CCc2ccc(OCCCCN3CCN(c4cccc(Cl)c4Cl)CC3)cc2N1` [Aripiprazole], the growth yield is, setting by setting: (40 h) 98.2%; (72 h) 96.8 ± 2.6%.

With `CN(C)CCOC(c1ccc(Cl)cc1)c1ccccn1` (stereo not drawn) [Carbinoxamine maleate salt], the growth yield was 97.7 ± 4.3% (40 h) and 97.8 ± 2.6% (72 h).

Take `NC(=O)NC1NC(=O)NC1=O` (stereo not drawn) [Allantoin]: the growth yield was found to be 102 ± 4.3% (40 h) and 99.5 ± 2.6% (72 h).

Turning to `O=C1C(O)=C([C@H]2CC[C@H](c3ccc(Cl)cc3)CC2)C(=O)c2ccccc21` [Atovaquone], the growth yield worked out at 95.1 ± 4.3% (40 h) and 97.4 ± 1.6% (72 h).

On to `CC(C)NCC(O)c1ccc(O)c(O)c1` (single isomer, unassigned; (-)) [(-)-Isoproterenol hydrochloride], for which the growth yield is, setting by setting: (40 h) 103 ± 1.9%; (72 h) 96 ± 2.6%.

For `Cc1ccccc1C(OCCN(C)C)c1ccccc1` (stereo not drawn) [Orphenadrine hydrochloride], the growth yield amounted to 98 ± 3.3% (40 h) and 98 ± 2.7% (72 h).

For the compound `CCN(CC)CCNC(=O)COc1ccc(OC)cc1` [Mefexamide hydrochloride], the growth yield is, setting by setting: (40 h) 104 ± 2.2%; (72 h) 106 ± 2.5%.

On to `Cc1nc2n(c(=O)c1CCN1CCC(c3noc4cc(F)ccc34)CC1)CCCC2O` (stereo not drawn) [Paliperidone], for which the growth yield by setting is: (40 h) 101 ± 5.2%; (72 h) 100 ± 2.7%.

`CC(=O)OCC1=C(C(=O)O)N2C(=O)[C@@H](NC(=O)Cc3cccs3)[C@H]2SC1` [Cephalothin sodium salt]: the growth yield came to 91.5 ± 2.5% (40 h) and 86.3 ± 2.6% (72 h).

For `Clc1ccc(C(Cn2ccnc2)OCc2csc3c(Cl)cccc23)c(Cl)c1` (stereo not drawn) [Sertaconazole nitrate], the growth yield reads like this: (40 h) 3.81%; (72 h) 2.73%.

In the case of `CC1(C)S[C@@H]2[C@H](NC(=O)Cc3ccccc3)C(=O)N2[C@H]1C(=O)O` [Benzylpenicillin sodium], the growth yield was found to be 108 ± 1.6% (40 h) and 104 ± 1.6% (72 h).

`CC1(C)S[C@@H]2[C@H](NC(=O)Cc3ccccc3)C(=O)N2[C@H]1C(=O)O` [Benzathine benzylpenicillin] gave a growth yield (40 h) of 103 ± 3.8% and a growth yield (72 h) of 96.5 ± 1.1%.

As for `CCCCc1nc(Cl)c(CO)n1Cc1ccc(-c2ccccc2-c2nnn[nH]2)cc1` [Losartan], the growth yield reads like this: (40 h) 102 ± 2.1%; (72 h) 99.6 ± 1.7%.

`O=C1CCC(N2C(=O)c3ccccc3C2=O)C(=O)N1` (stereo not drawn) [Thalidomide] displayed a growth yield (40 h) of 102 ± 1.1% and a growth yield (72 h) of 103 ± 1.3%.

`O=C1NCCN1CCN1CCC(c2cn(-c3ccc(F)cc3)c3ccc(Cl)cc23)CC1` [Sertindole] yielded a growth yield (40 h) of 34.5 ± 20% and a growth yield (72 h) of 111 ± 2.4%.

With `O=C1OC(CN2CCOCC2)CN1/N=C/c1ccc([N+](=O)[O-])o1` (stereo not drawn) [Furaltadone hydrochloride], the growth yield runs as follows: (40 h) 97.1 ± 4.3%; (72 h) 100 ± 2.7%.

Take `CNCCCN1c2ccccc2CCc2ccccc21` [Desipramine hydrochloride]: the growth yield is 94.83 ± 0.48% (40 h) and 99.84 ± 0.42% (72 h).

On to `O=C(O)CCNC(=O)c1ccc(/N=N/c2ccc(O)c(C(=O)O)c2)cc1` [Balsalazide Sodium], for which the growth yield runs as follows: (40 h) 107 ± 1.4%; (72 h) 101.9 ± 0.84%.

`C[n+]1ccccc1/C=N/O` [Pralidoxime chloride]: the growth yield is, setting by setting: (40 h) 103 ± 1.8%; (72 h) 100.4 ± 0.94%.

As to `Cc1cccc(Nc2ccccc2C(=O)O)c1C` [Mefenamic acid], the growth yield reads like this: (40 h) 85.1 ± 2.5%; (72 h) 86 ± 2.7%.

With `CCC(C)n1ncn(-c2ccc(N3CCN(c4ccc(OCC5COC(Cn6cncn6)(c6ccc(Cl)cc6Cl)O5)cc4)CC3)cc2)c1=O` (stereo not drawn) [Itraconazole], the growth yield came out at 4.77 ± 2.2% (40 h) and 13.2% (72 h).

Consider `CC(C)NCC(O)c1cc(O)cc(O)c1` (stereo not drawn) [Metaproterenol sulfate, orciprenaline sulfate], for which the growth yield is, setting by setting: (40 h) 99.1 ± 1.6%; (72 h) 99.95 ± 0.1%.

On to `O=C(O)CN(CCN(CC(=O)O)CC(=O)O)CCN(CC(=O)O)CC(=O)O` [Pentetic acid], for which the growth yield amounted to 88.8 ± 5.2% (40 h) and 91.8 ± 4.1% (72 h).

`C#CCN(C)CCCOc1ccc(Cl)cc1Cl` [Clorgyline hydrochloride]: the growth yield is 91.7 ± 1.8% (40 h) and 101 ± 3.1% (72 h).

Consider `Cn1c(=O)c2c(ncn2CCO)n(C)c1=O` [Etofylline], for which the growth yield (40 h) was found to be 102.5 ± 0.48% and the growth yield (72 h) was found to be 102 ± 1.1%.

`COc1ccccc1N1CCN(CCCNc2cc(=O)n(C)c(=O)n2C)CC1` [Urapidil hydrochloride]: the growth yield came out at 102 ± 4.5% (40 h) and 99.6 ± 1.1% (72 h).

In turn, `COc1nc(N)nc2c1ncn2[C@@H]1O[C@H](CO)[C@@H](O)[C@@H]1O` [Nelarabine] returned a growth yield (40 h) of 112 ± 2.9% and a growth yield (72 h) of 106 ± 3.8%.

Take `CCC(=O)OCC(=O)[C@@]1(OC(=O)CC)[C@@H](C)C[C@H]2[C@@H]3CCC4=CC(=O)C=C[C@]4(C)[C@@]3(Cl)[C@@H](O)C[C@@]21C` [Beclomethasone dipropionate]: the growth yield by setting is: (40 h) 103 ± 7.8%; (72 h) 98.7 ± 3%.

`CCN(CC)Cc1cc(Nc2ccnc3cc(Cl)ccc23)ccc1O` [Amodiaquin dihydrochloride dihydrate] gave a growth yield (40 h) of 102 ± 0.32% and a growth yield (72 h) of 105 ± 0.52%.

On to `OCCN1C[C@H](O)[C@@H](O)[C@H](O)[C@H]1CO` [Miglitol], for which the growth yield runs as follows: (40 h) 101 ± 3%; (72 h) 103 ± 3.1%.

On to `Cn1cnc([N+](=O)[O-])c1Sc1ncnc2[nH]cnc12` [Azathioprine], for which the growth yield is, setting by setting: (40 h) 103.1 ± 0.48%; (72 h) 104.56 ± 0.1%.

Consider `CC(C)C(=O)Nc1ccc([N+](=O)[O-])c(C(F)(F)F)c1` [Flutamide], for which the growth yield came to 82 ± 3.2% (40 h) and 85.1 ± 2.4% (72 h).
